The campaign covered roughly 150,000 compounds. About 540 (0.36%) showed an effect of 50% or more. The list shows a part of the results.
tested on: Plasmodium falciparum; experiment: Primary screen in NF54 nanoGlo assay, in single point, at 2uM, 72h; a lower Z score goes with more inhibition; type: functional, Erythrocyte; conditions: timepoint 72 hour

Row | Compound | % Inhibition | Z score
1 | Nc1c(Cl)cc(S(=O)(=O)Nc2noc(C3CC3)n2)cc1Cl | -5% | 0.88
2 | CCc1ccc(NC(=O)Cn2ncn3nc4c(c3c2=O)CCCC4)cc1 | 1% | -0.12
3 | CN1C(=O)[C@H]2CN(C(=O)Cn3ccc4ccccc4c3=O)C[C@H]2C1=O | 5% | -0.79
4 | Cc1csc(CNC(=O)c2ccccn2)n1 | -4% | 0.5
5 | CN1C(=O)C(C)(C)c2cc(S(=O)(=O)NCC3CCC(C(=O)NC4CCCCC4)CC3)ccc21 (stereo not given) | -9% | 1.41
6 | C[C@@H](Cn1cncn1)NC(=O)Nc1scnc1C(C)(C)C | -8% | 0.93
7 | CCc1ccc(-c2cnc3ccccc3n2)cc1NC(=O)[C@@H](NS(=O)(=O)c1ccccc1)C(C)C | 4% | -0.61
8 | CS(=O)(=O)N1CCN(C(=O)Cc2ccn[nH]2)Cc2ccccc21 | 5% | -0.97
9 | c1nc(N2CCC3(CCO3)CC2)c2cc[nH]c2n1 | -2% | 0.44
10 | COc1ccccc1CNC(=O)c1c(OCC(C)C)cc(=O)n2c1CCCCC2 | -4% | 0.58
11 | O=C(NCCc1ccco1)c1ccc(CN2C(=O)CCn3nc(-c4ccccc4)cc32)cc1 | 10% | -1.13
12 | N#CCC1(COc2ccc(F)cc2C(=O)c2ccccc2)CC1 | 5% | -1
13 | COc1cccc(-c2nc(Cn3nc(C)c4c(C)onc4c3=O)c(C)o2)c1OC | -7% | 0.73
14 | Cc1cnc(NC(=O)Cn2ncc(=O)c3ccccc32)s1 | 7% | -1.41
15 | Cc1cc(NC(=O)CCc2cccs2)on1 | 8% | -1.56
16 | Cc1cc(NC(=O)Cn2ccc(-c3ccc(C)s3)n2)n(C)n1 | -9% | 1.28
17 | CS(=O)(=O)N(CC(F)(F)F)C1CCN(Cc2coc3ccccc23)CC1 | -5% | 0.7
18 | C[C@@H](C(=O)OC(C)(C)C)N(C(=O)c1cocn1)c1ccc(F)cc1 | -10% | 1.34
19 | CC(C)(C)[C@H](CC1CCCCC1)NC(=O)CCN | -29% | 3.41
20 | CNc1cc([C@H]2C[C@H](NC(=O)Cc3ccccc3F)C2)nc(COC)n1 | -5% | 0.88
21 | C=C(CC(=O)Nc1ccc(F)cc1F)C(=O)Nc1ccc(F)cc1F | 33% | -3.76
22 | CN(CCn1cccn1)c1cc(N2CCCC2)ncn1 | -2% | 0.41

Row | Compound | % Inhibition | Z score
23 | CCn1nc(C)c(C(=O)N2CCn3nc(CO)cc3C2)c1C | 1% | -0.11
24 | OCc1cc(C(F)(F)F)ccc1-c1cnc2c(c1)CC[C@@H]2O | 3% | -0.41
25 | O=C(N[C@H]1CCc2cc(F)c(F)c(F)c21)N1CCn2ncnc2C1 | -5% | 1.12
26 | O=C(NCc1ccccn1)c1csc(-c2ccco2)n1 | -7% | 1.1
27 | O=S(=O)(c1ccc2c(c1)CCC2)N1CC(n2cnnc2[C@@H]2CCCO2)C1 | -9% | 1.49
28 | CC(=O)N[C@H](C(=O)N(CC1CCN(CCc2ccccc2C)CC1)C1CCCC1)C(C)C | -13% | 1.63
29 | CC1C(Cc2ccccc2)CCN1C(=O)NC1CCN(C)C1=O (stereo not given) | 1% | -0.15
30 | Cn1cccc1CNC(=O)CCc1nc2c([nH]1)c(=O)[nH]c(=O)n2C | -11% | 1.18
31 | O=C(CCc1c[nH]c2ccccc12)Nc1cnn2c1NCCC2 | -1% | 0.12
32 | COc1cc(=O)n2c(c1C(=O)N(C)Cc1nonc1C)CCNCC2 | -9% | 1.26
33 | Cc1cc(O)ccc1C(=O)NC[C@H]1CCN(C2CCCC2)C1 | -10% | 1.67
34 | CN1CCCC2(CCN(C(=O)C3CCc4ccccc43)C2)C1 (stereo not given) | 1% | -0.1
35 | CCN1C[C@@H](NC(=O)Cc2c(C)n[nH]c2C)CC1=O | -6% | 0.83
36 | O=C(NC1CCCCC1)N1CC[C@H](c2nc(CCOCC3CC3)no2)C1 | -2% | 0.26
37 | COc1ccccc1C(=O)N1CCN(c2cc(N3CCN(C)CC3)nc(C)n2)CC1 | -13% | 1.51
38 | O=C(Nc1nc2c(s1)CCCC2)c1ccc2c(c1)OCCO2 | -6% | 0.6
39 | CN1CCC(N2CCC[C@H](NC(=O)c3ccc(Cl)c(F)c3)C2)CC1 | 6% | -0.74
40 | NC(=O)c1csc(CNC(=O)N2CCC[C@H]2C(F)F)n1 | 11% | -2.12
41 | O=C(N[C@H]1CC[C@H](CO)CC1)c1cc(F)cc(Br)c1 | 2% | -0.2
42 | Cn1ncc(C2CCC2)c1C(=O)N1CCN(C2CC2)c2cc(Cl)ccc21 | 2% | -0.23
43 | CCn1ncc(CN[C@@H](C)c2ccnc(OC)c2)n1 | -3% | 0.46
44 | COc1ccc(-n2c(C)nn(Cc3ccccc3)c2=O)cc1 | 38% | -4.9

Row | Compound | % Inhibition | Z score
45 | COc1ccccc1C(C)NC(=O)C1CCc2[nH]ncc2C1 (stereo not given) | -13% | 1.3
46 | Cc1c(C(=O)NCc2ccco2)cnn1-c1ncccc1-c1nc(C2CC2)no1 | -9% | 1.39
47 | C[C@@H](c1ccccc1)N(Cc1nnc2n1CCOCC2)S(C)(=O)=O | 19% | -3.18
48 | NC(=O)c1cncc(N2CCC(Oc3ccccc3Cl)CC2)n1 | -14% | 1.79
49 | Cc1ccn2c3c(nc2c1)CNC(=O)C[C@@H]3c1ccc(F)c(C)c1 | 6% | -0.79
50 | Cc1nn(CCO)c(C)c1CN1CCn2nc(C#N)cc2C1 | -15% | 1.36
51 | N#Cc1ccccc1C(=O)N1CCC2(CCN(C3CCCC3)CC2)[C@@H](CO)C1 | -4% | 0.71
52 | CCNC(=O)N1CCN(c2ccc(-c3noc(C(F)(F)F)n3)cn2)CC1 | 12% | -1.6
53 | Cc1ccc2nc(C)c(C)c(C(=O)N3CC[C@H](Cc4cccc(CO)c4)C3)c2c1 | -4% | 0.82
54 | CC(C)c1ccc(N2CCN(C(=O)c3cccs3)[C@@H](C)C2=O)cc1 | -7% | 1.13
55 | COc1ccc2[nH]c(CN3CCN(Cc4ccsc4)[C@@H](CCO)C3)c(C)c2c1 | -15% | 1.67
56 | Cc1ccc(C)c(OCCN(C)C(=O)CN2CCCC2=O)c1 | -6% | 0.8
57 | COc1ccc2c(c1Cl)[C@@H](NCC1(CO)CCOCC1)CCC2 | -7% | 1.1
58 | COCC1(C(=O)NC2(c3cc(F)ccc3F)CC2)CCC1 | -17% | 1.55
59 | CC(=O)Nc1ccc(NCc2scnc2C)c(Br)c1 | -16% | 1.4
60 | Cc1cc(C)n(CC(=O)N2CCC3(CCC(=O)N(Cc4ccncc4)C3)CC2)n1 | 3% | -0.41
61 | O=C(NCCCN1CCCC1)c1ccc2c(c1)NC(=O)[C@@H]1CCCCN21 | -2% | 0.34
62 | CCc1nnc(CNC(=O)c2cnc(-c3csc(C)n3)nc2O)s1 | -9% | 1.19
63 | C=CCCCNc1ccc(C(N)=O)c(F)c1 | 38% | -4.33
64 | COc1ccc(C)cc1NC(=O)c1cnn2c(=O)cc(C)[nH]c12 | -14% | 1.75
65 | Cc1ccc([C@@H](C)CCNc2cc(C(=O)N(C)C)cc(S(=O)(=O)NCCN3CCNC3=O)c2)o1 | -2% | 0.43
66 | CCC1=NC2(CCN(C(=O)[C@H](C)Oc3ccc4c(c3)OCO4)CC2)C(=O)N1 | -6% | 0.81

Row | Compound | % Inhibition | Z score
67 | COCc1nc(CN(Cc2ccco2)C(=O)NC(C)C)[nH]c(=O)c1Cc1cccc(C(F)(F)F)c1 | -3% | 0.38
68 | COc1ccc(NC(=O)[C@H](C)N(C)Cc2cnccn2)cc1Cl | -6% | 0.69
69 | C=CCN(CCO)S(=O)(=O)c1ccc(F)c(C)c1 | -5% | 0.53
70 | CN(C)C[C@@]12CN(Cc3ccccc3)C[C@@H]1CN(C(=O)c1ccco1)C2 | -8% | 1.12
71 | COc1cc(CNCCc2ccccc2C)ccc1OC[C@@H](O)CN1CCOCC1 | 3% | -0.56
72 | CCC(CC)C(=O)N1CCC2(CCN(Cc3sccc3C)CC2)CC1 | -9% | 1.81
73 | COc1ccc(C2=NOC(CNC3CC(C)OC3C)C2)cc1F (stereo not given) | -13% | 1.61
74 | CN(C)c1cccc(C(=O)N(C)[C@H]2COC[C@@H]2O)c1 | 0% | -0.06
75 | CN(CCc1ccccn1)c1nc(-c2ccccc2)nc2c1CCNC2 | -3% | 0.49
76 | CC1(C2CCN(c3cc(C(F)(F)F)nc(-c4cccnc4)n3)CC2)OCCO1 | 5% | -0.87
77 | COc1ccc(OCC(=O)Nc2[nH]nc(C)c2-c2cccc(Cl)c2)cc1 | 0% | -0.05
78 | O=C(NCc1cccnc1)C(=O)N1CCCCC1 | -1% | 0.07
79 | CCc1nnc(CN2CCc3ccccc32)o1 | -7% | 0.8
80 | CCOC1CC(Nc2ccc(C#N)cc2)C12CCCO2 (stereo not given) | -3% | 0.65
81 | CC(C)N1CCNC(=O)[C@@H]1Cc1nc(C2CC2)nn1-c1ccccn1 | -3% | 0.5
82 | Cc1n[nH]c(C)c1S(=O)(=O)N1CC(c2ccncc2)C1 | -20% | 1.93
83 | CCn1c(=O)c(C(=O)NC(C)C)nn(-c2cccc(C)c2)c1=O | -6% | 0.85
84 | CCc1c(C)nc(C)nc1-c1ccc(-n2cccn2)cc1 | -5% | 0.65
85 | CN1CCN(Cc2noc(C3CCC3)n2)c2ccc(Cl)cc21 | -7% | 1.1

Source: ChEMBL document CHEMBL4888484, “Replenishing the malaria drug discovery pipeline: Screening and hit evaluation of the MMV Hit Generation Library 1 (HGL1) against asexual blood stage Plasmodium falciparum ,using a nano luciferase reporter read-out” (2022)
